In all, about 44,000 compounds went through this assay and about 340 (0.77%) were called active. Inconclusive results (about 5%) are left out. Calls come from the whole dose curve; as a rule, active = well fitted inhibition curve with a large enough effect; inconclusive = small, poorly fitted or top-dose-only effect; inactive = flat fitted curve, though single readings scatter. Some of the results follow.
Test: Acumen qHTS Assay for Inhibitors of the mTORC1 Signaling Pathway in MEF (Tsc2-/-, p53-/-) Cells: Sytravon;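 note: plate controls were DMSO for no effect and rapamycin for full effect; nearly all actives have a fitted effect of over 50% in size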
Conditions: phospho-rpS6 immunofluorescence/PI, 24 h; series mostly up to 38.3 µM; activity change, negative = inhibition: at the top concentration
How it was run: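 Tsc2-/-, p53-/- MEFs (empty-vector stable line) in DMEM + 10% FBS were treated with compounds 24 h at 37 degree Celsius, fixed, and immunostained for phospho-rpS6 (Alexa-488) with propidium iodide counterstain. Laser-scanning cytometry gave % positive cells, normalized against 7.5 nM rapamycin and DMSO.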

SMILES	activity change, negative = inhibition
Cc1ccc(-n2c(/C=C/c3cccc4ccccc34)nc3ccccc3c2=O)cc1	inactive: 8.83%
Cc1cccc(CN2C(=O)CN=C(c3ccccc3Cl)c3cc(Cl)ccc32)c1	inactive: -3.36%
O=C(Nc1ccc(OC(F)(F)F)cc1)c1cccn(Cc2ccccc2Cl)c1=O	inactive: -4.52%
O=C(c1ccc2c(c1)N(Cc1c(F)cccc1Cl)C(=O)c1ccccc1S2)N1CCC2(CC1)OCCO2	inactive: -1.22%
Cc1ccc(C)c(CN2C(=O)c3ccccc3Sc3ccc(C(=O)N4CCC5(CC4)OCCO5)cc32)c1	inactive: 7.27%
CCn1c(CN2CCN(C)CC2)nc2ccccc21	inactive: -0.803%
CCSc1nnc(NC(=O)c2cccn(Cc3ccc(Cl)cc3)c2=O)s1	inactive: -0.122%
Cc1cccc(-n2c(/C=C/c3cccc4ccccc34)nc3ccccc3c2=O)c1	inactive: 6.26%
O=c1c2ccccc2nc(/C=C\c2cccc(Br)c2)n1-c1ccc(O)cc1	inactive: -29.8%
Cc1ccc(-n2c(/C=C/c3cccc(C(F)(F)F)c3)nc3ccccc3c2=O)cc1	inactive: 9.43%
NC(=O)c1ccc(NC(=O)c2cccn(Cc3ccccc3)c2=O)cc1	inactive: 3.17%
Cc1c(C(c2ccc(O)cc2)c2c(O)c3ccccc3oc2=O)c(=O)n(-c2ccccc2)n1C (stereo not drawn)	inactive: -1.95%
CC(=O)c1ccc(NC(=O)c2sc3nc4c(cc3c2N)N2CCC4CC2)cc1	inactive: -0.128%
Cc1ccc2scc(N3CCN(C)CC3)c(=O)c2c1	inactive: -7.99%
Cc1ccc(-n2c(/C=C/c3ccccc3)nc3ccccc3c2=O)cc1C	inactive: 4.72%
CCOc1ccc(CN(CCc2ccc3c(c2)OCO3)Cc2cccc(Br)c2)cc1	inactive: -6.61%
O=C(Nc1nc2ccccc2s1)c1cccn(Cc2ccccc2)c1=O	inactive: -2.22%
CCCc1nc(SC)ncc1C(=O)Nc1ccc(Cl)cc1C(=O)c1ccccc1	inactive: -5.31%
Cc1nnc(NC(=O)c2cccn(Cc3ccccc3)c2=O)s1	inactive: -4.58%
Cc1cccc(OC(C)C(=O)NCC2(N(C)C)CCCCC2)c1C (stereo not drawn)	inactive: -1.17%
CCOc1ccc(CN(CCc2ccc3c(c2)OCO3)Cc2ccc(CC)cc2)cc1	inactive: 0.989%
Cc1oc2cc3oc(=O)c(CCC(=O)N4CCCCC4)c(C)c3cc2c1C	inactive: -3.22%
Cc1ccccc1-n1nc(C)c2c1NC(=O)CSC2c1ccccc1C(F)(F)F (stereo not drawn)	inactive: -1.99%
COc1ccccc1CN1CCN(C(=O)COc2cccc(C)c2)CC1	inactive: 6.02%
COc1ccc(NC(=O)CN2C(=O)CN=C(c3ccccc3)c3ccccc32)c(OC)c1	inactive: -5.67%
COc1ccc(C2CC(=O)Oc3c2c(=O)oc2ccccc32)c(OC)c1OC (stereo not drawn)	inactive: -1.19%
Cc1ccc(Cn2cccc(C(=O)Nc3ccc(C)c(Cl)c3)c2=O)cc1	inactive: 2.05%
Cc1cc(OCC(=O)N2CCN(CCc3ccncc3)CC2)cc(C)c1Cl	inactive: 2.51%

Reference: PubChem BioAssay AID493208 (National Center for Advancing Translational Sciences (NCATS), 2011)
